Screen size: about 310,000 compounds; about 2,200 (0.71%) showed an effect of 50% or more. The effect is printed as a negative number. Some of the results follow.

This assay deals with human ether-à-go-go-related gene (hERG) potassium channel (human, UniProt Q12809). Briefly: primary screen, population patch clamp on CHO cells stably expressing hERG.
Chain of human ether-à-go-go-related gene (hERG) potassium channel (Q12809 whole entry, looked up): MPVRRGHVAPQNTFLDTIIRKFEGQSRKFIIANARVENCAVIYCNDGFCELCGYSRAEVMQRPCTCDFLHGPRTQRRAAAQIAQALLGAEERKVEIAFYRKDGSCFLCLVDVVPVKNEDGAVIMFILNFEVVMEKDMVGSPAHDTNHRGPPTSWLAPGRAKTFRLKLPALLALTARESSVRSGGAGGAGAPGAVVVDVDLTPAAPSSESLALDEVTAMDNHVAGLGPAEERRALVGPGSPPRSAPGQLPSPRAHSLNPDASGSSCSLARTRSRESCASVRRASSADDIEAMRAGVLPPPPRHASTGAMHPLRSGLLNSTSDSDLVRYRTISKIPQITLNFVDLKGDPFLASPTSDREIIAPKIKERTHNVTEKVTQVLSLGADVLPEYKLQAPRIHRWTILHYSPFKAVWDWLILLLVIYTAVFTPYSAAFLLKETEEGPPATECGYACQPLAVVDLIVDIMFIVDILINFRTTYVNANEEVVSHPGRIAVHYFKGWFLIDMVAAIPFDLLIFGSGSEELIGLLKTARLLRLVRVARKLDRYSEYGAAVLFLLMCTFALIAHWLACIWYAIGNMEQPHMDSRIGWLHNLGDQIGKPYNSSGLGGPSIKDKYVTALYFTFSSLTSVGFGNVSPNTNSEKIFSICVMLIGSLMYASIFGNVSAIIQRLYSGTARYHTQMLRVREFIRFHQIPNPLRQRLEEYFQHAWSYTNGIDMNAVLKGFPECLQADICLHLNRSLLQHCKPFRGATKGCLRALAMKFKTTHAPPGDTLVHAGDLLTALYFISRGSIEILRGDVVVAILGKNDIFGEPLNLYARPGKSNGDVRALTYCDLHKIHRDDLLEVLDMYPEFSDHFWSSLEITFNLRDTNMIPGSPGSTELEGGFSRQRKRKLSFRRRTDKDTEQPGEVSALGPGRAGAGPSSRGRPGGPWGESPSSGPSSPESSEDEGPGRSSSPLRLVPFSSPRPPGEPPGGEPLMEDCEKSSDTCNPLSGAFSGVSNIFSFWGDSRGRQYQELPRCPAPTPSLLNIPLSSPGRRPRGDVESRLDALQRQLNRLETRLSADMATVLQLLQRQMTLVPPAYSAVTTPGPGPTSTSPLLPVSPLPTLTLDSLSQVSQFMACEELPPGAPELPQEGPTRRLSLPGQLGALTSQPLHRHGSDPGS
For the compound `COc1ccc2c(c1)[nH]c1c(=O)n(Cc3ccco3)cnc12`, the “hERG current change (%, negative = inhibition) at 1uM” value is listed as 13.9%.

For `O=C(CCc1ccccc1)NCCSc1ccccc1`, the “hERG current change (%, negative = inhibition) at 1uM” value was 5.41%.

Regarding `CCC(C)NC(=O)CSc1nnc(-c2ccc(Cl)cc2)n1N` (stereo not drawn), the “hERG current change (%, negative = inhibition) at 1uM” value amounted to 3.79%.

As to `COc1ccc(C)cc1NC(=O)CN(C)S(=O)(=O)c1ccc2c(c1)c(=O)n(C)c(=O)n2C`, the “hERG current change (%, negative = inhibition) at 1uM” value is listed as 12.8%.

Take `O=C(Nc1ccc(Oc2ccccc2)nc1)C1CCN(Cc2ccco2)CC1`: the “hERG current change (%, negative = inhibition) at 1uM” value was -4.52%.

For `CC(C)C(NC(=O)/C(=C\c1ccco1)NC(=O)c1ccco1)C(=O)O` (stereo not drawn), the “hERG current change (%, negative = inhibition) at 1uM” value was found to be 14.4%.

`C[C@@H](NC(=O)c1nc[nH]c1C(=O)N[C@@H](Cc1ccccc1)C(=O)OCc1ccccc1)c1ccccc1`: the “hERG current change (%, negative = inhibition) at 1uM” value stood at 5.55%.

As for `COc1ccccc1NC(=O)CSc1nnc(Cn2cnc3ccccc32)n1C`, the “hERG current change (%, negative = inhibition) at 1uM” value was 1.02%.

Regarding `N#CC(C(=O)NCCc1ccccc1)c1nc2ccccc2nc1N1CCOCC1` (stereo not drawn), the “hERG current change (%, negative = inhibition) at 1uM” value was 6.05%.

Regarding `CC1(C)CC(=O)C2=C(C1)OC1=C(C(=O)CC(C)(C)C1)C2c1ccccc1`, the “hERG current change (%, negative = inhibition) at 1uM” value amounted to 5.97%.

For the compound `O=C(Nc1ccccc1)/C(=C\c1cccs1)NC(=O)c1ccccc1`, the “hERG current change (%, negative = inhibition) at 1uM” value was determined as 14.9%.

Consider `COc1ccc(N(CC(=O)NCc2ccc(F)cc2)C(=O)CCC(=O)Nc2nccs2)cc1`, for which the “hERG current change (%, negative = inhibition) at 1uM” value is reported as 14.5%.

As for `Cc1c(C(=O)O)cc(-c2ccccc2)n1Cc1ccccc1`, the “hERG current change (%, negative = inhibition) at 1uM” value was 14.8%.

With `COc1ccccc1C(=O)Nc1cc2c(cc1C(=O)O)OCCCO2`, the “hERG current change (%, negative = inhibition) at 1uM” value is 4.66%.

Take `Cn1c(=O)n(C)c2cc(NC(=O)CCl)ccc21`: the “hERG current change (%, negative = inhibition) at 1uM” value stood at 1.81%.

Take `CCOc1cc(S(=O)(=O)NCCc2ccccc2C)c(OCC)cc1-n1cnnn1`: the “hERG current change (%, negative = inhibition) at 1uM” value was -5.54%.

In the case of `COc1c(C)cc(Br)cc1C(=O)NC(=S)NCc1ccco1`, the “hERG current change (%, negative = inhibition) at 1uM” value was 7.65%.

For the compound `COC(=O)c1cc(NC(=O)c2c(C)noc2C)ccc1N1CCOCC1`, the “hERG current change (%, negative = inhibition) at 1uM” value is 11.9%.

Turning to `Cc1cc(C)n(C(=O)c2c([N+](=O)[O-])cnn2C)n1`, the “hERG current change (%, negative = inhibition) at 1uM” value turned out to be 11.1%.

Regarding `O=C(CNC(=O)c1nc[nH]c1C(=O)N1CCc2ccccc2C1)OCc1ccccc1`, the “hERG current change (%, negative = inhibition) at 1uM” value is recorded as 9.92%.

`COc1cccc(CC(=O)N2CCC(n3nccc3NC(=O)C3CC3)CC2)c1`: the “hERG current change (%, negative = inhibition) at 1uM” value is reported as -3.01%.

In the case of `N#C/C(=C\c1ccc(O)c(O)c1)C(=O)NCCc1ccccc1`, the “hERG current change (%, negative = inhibition) at 1uM” value is reported as 10.8%.

With `Cc1cccc(OCC(=O)Nc2ccc3c(c2)OCCO3)c1`, the “hERG current change (%, negative = inhibition) at 1uM” value came to 18%.

As for `CSC1=NCCN1C(=O)c1ccc(S(=O)(=O)N2CCOCC2)cc1`, the “hERG current change (%, negative = inhibition) at 1uM” value came out at 14.5%.

In the case of `Cc1cccc(OC(=O)C2C(c3ccccc3)C(C(=O)O)C2c2ccccc2)c1` (stereo not drawn), the “hERG current change (%, negative = inhibition) at 1uM” value came to 6.14%.

In the case of `COc1ccccc1NC(=O)CSc1nnnn1-c1ccc2c(c1)OCO2`, the “hERG current change (%, negative = inhibition) at 1uM” value amounted to 9.46%.

With `CCOc1cc(/C=N/NC(=O)C(=O)NCc2ccc3c(c2)OCO3)ccc1OCC(=O)N1CCOCC1`, the “hERG current change (%, negative = inhibition) at 1uM” value is listed as 11.3%.

As for `CC(C)CNC(=O)COC(=O)c1ccccc1SCC(=O)NCC(C)C`, the “hERG current change (%, negative = inhibition) at 1uM” value stood at 8.48%.

For `Cn1cccc1CC(=O)N/N=C/C=C/c1ccco1`, the “hERG current change (%, negative = inhibition) at 1uM” value was 14.8%.

For the compound `CCCN(CCC)CC(O)Cn1c2ccccc2c2ccccc21` (stereo not drawn), the “hERG current change (%, negative = inhibition) at 1uM” value is given as 12.5%.

As to `Cc1ccc(NS(=O)(=O)c2ccc3c(c2)NC(=O)C(C)C(=O)N3)c(Br)c1` (stereo not drawn), the “hERG current change (%, negative = inhibition) at 1uM” value is given as 12.1%.

As to `NC(=O)C1CCCN(C(=O)c2ccc3c(c2)NC(=O)CS3)C1` (stereo not drawn), the “hERG current change (%, negative = inhibition) at 1uM” value was determined as 11.3%.

Regarding `C/C(=N\NS(=O)(=O)c1ccccc1)c1ccccc1`, the “hERG current change (%, negative = inhibition) at 1uM” value was 17.2%.

As to `OC(CSc1ccc(F)cc1)CN1CCN(c2ccccc2)CC1` (stereo not drawn), the “hERG current change (%, negative = inhibition) at 1uM” value is 7.43%.

In the case of `CCn1c(CSc2nncn2-c2ccc(OC)cc2)nc2cc(S(=O)(=O)N(C)C)ccc21`, the “hERG current change (%, negative = inhibition) at 1uM” value was -14.8%.

Take `CCn1ccnc1CN(C)Cc1nc(CCC(C)C)no1`: the “hERG current change (%, negative = inhibition) at 1uM” value was found to be 11.8%.

Consider `COC(=O)COc1ccc(C2Nc3c(Cl)ccc(C(=O)O)c3C3C=CCC32)cc1` (stereo not drawn), for which the “hERG current change (%, negative = inhibition) at 1uM” value is recorded as 5.62%.

As to `CNc1snc(C)c1C(=O)OC(C)C(=O)c1ccc(F)cc1` (stereo not drawn), the “hERG current change (%, negative = inhibition) at 1uM” value was found to be 12.1%.

`Cc1ccc2[nH]c(=O)c(C(c3nnnn3C(C)(C)C)N3CCN(C(=O)c4ccco4)CC3)cc2c1` (stereo not drawn): the “hERG current change (%, negative = inhibition) at 1uM” value is given as -3.38%.

Consider `COc1ccc(C(=O)NNC(=S)Nc2ccccc2)cc1`, for which the “hERG current change (%, negative = inhibition) at 1uM” value came out at 10.5%.

On to `Cc1nn(-c2ccccc2)c2sc(C(=O)NC3CCCCC3)cc12`, for which the “hERG current change (%, negative = inhibition) at 1uM” value was 5.33%.

Consider `CC(C)(C)NC(=O)CCN(/N=C/c1ccc([N+](=O)[O-])o1)C1=NS(=O)(=O)c2ccccc21`, for which the “hERG current change (%, negative = inhibition) at 1uM” value came out at 0.495%.

In the case of `CC(=O)Cn1ncc(N2CCOCC2)c(Br)c1=O`, the “hERG current change (%, negative = inhibition) at 1uM” value is reported as 13%.

`O=c1[nH]c(-c2ccccc2)nc(-c2ccccc2)c1Cl`: the “hERG current change (%, negative = inhibition) at 1uM” value came to 8.49%.

For the compound `CCn1cc(SCC(=O)NC2CCCC2)c2ccccc21`, the “hERG current change (%, negative = inhibition) at 1uM” value is listed as 8.83%.

(Values after paper PMC4336329 (PLoS ONE, 2015).)
